# From the supplement of paper PMC8728848
# The other results are listed elsewhere or left out.
# B1: E-Selectin (Homo sapiens), P16581 (protein)
# chain: MIASQFLSALTLVLLIKESGAWSYNTSTEAMTYDEASAYCQQRYTHLVAIQNKEEIEYLNSILSYSPSYYWIGIRKVNNVWVWVGTQKPLTEEAKNWAPGEPNNRQKDEDCVEIYIKREKDVGMWNDERCSKKKLALCYTAACTNTSCSGHGECVETINNYTCKCDPGFSGLKCEQIVNCTALESPEHGSLVCSHPLGNFSYNSSCSISCDRGYLPSSMETMQCMSSGEWSAPIPACNVVECDAVTNPANGFVECFQNPGSFPWNTTCTFDCEEGFELMGAQSLQCTSSGNWDNEKPTCKAVTCRAVRQPQNGSVRCSHSPAGEFTFKSSCNFTCEEGFMLQGPAQVECTTQGQWTQQIPVCEAFQCTALSNPERGYMNCLPSASGSFRYGSSCEFSCEQGFVLKGSKRLQCGPTGEWDNEKPTCEAVRCDAVHQPPKGLVRCAHSPIGEFTYKSSCAFSCEEGFELHGSTQLECTSQGQWTEEVPSCQVVKCSSLAVPGKINMSCSGEPVFGTVCKFACPEGWTLNGSAARTCGATGHWSGLLPTCEAPTESNIPLVAGLSAAGLSLLTLAPFLLWLRKCLRKAKKFVPASSCQSLESDGSYQKPSYIL
# Key:
# Experiment in all cases: glycan array binding signal (z-score within array); higher = stronger binding
# Details in all cases: glycan notation: IUPAC condensed, linker removed
# [1] = molecular target: GalNAc(b1-3)Gal
# Outline: (§1)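 Glycan array binding is given as a within-array Z-score, which can be read as non-binding when negative. The arrays, 3228 of them, came from the Consortium for Functional Glycomics database and were retained only where the protein sequence was available. Z-scores were averaged across arrays of the same protein sequence at different concentrations or buffers and across linkers.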
# [2] = molecular target: GalNAc(b1-3)Gal(a1-4)Gal(b1-4)GlcNAc
# Outline: as §1
# [3] = molecular target: GalNAc(b1-3)GalNAc
# Outline: as §1
# [4] = molecular target: GalNAc(b1-4)GlcNAc
# Outline: as §1
# [5] = molecular target: Glc(a1-4)Glc
# Outline: as §1
# [6] = molecular target: Glc(a1-6)Glc(a1-6)Glc
# Outline: as §1
# [7] = molecular target: Glc(b1-4)Glc
# Outline: as §1
# [8] = molecular target: Glc(b1-6)Glc
# Outline: as §1
# [9] = molecular target: GlcA(b1-3)Gal
# Outline: as §1
# [10] = molecular target: GlcA(b1-3)GlcNAc
# Outline: as §1
# [11] = molecular target: GlcA(b1-6)Gal
# Outline: as §1
# [12] = molecular target: GlcNAc(a1-3)Gal(b1-4)GlcNAc
# Outline: as §1
# [13] = molecular target: GlcNAc(a1-6)Gal(b1-4)GlcNAc
# Outline: as §1
# [14] = molecular target: GlcNAc(b1-2)Gal(b1-3)GalNAc
# Outline: as §1
# [15] = molecular target: GlcNAc(b1-2)Man(a1-3)[GlcNAc(b1-2)Man(a1-6)]Man(b1-4)GlcNAc(b1-4)GlcNAc
# Outline: as §1
# [16] = molecular target: GlcNAc(b1-3)Gal
# Outline: as §1
# [17] = molecular target: GlcNAc(b1-3)Gal(b1-3)GalNAc
# Outline: as §1
# [18] = molecular target: GlcNAc(b1-3)Gal(b1-4)Glc
# Outline: as §1
# [19] = molecular target: GlcNAc(b1-3)Gal(b1-4)GlcNAc
# Outline: as §1
# [20] = molecular target: GlcNAc(b1-3)Gal(b1-4)GlcNAc(b1-3)Gal(b1-4)GlcNAc
# Outline: as §1
# [21] = molecular target: GlcNAc(b1-3)GalNAc
# Outline: as §1
# [22] = molecular target: GlcNAc(b1-3)Man
# Outline: as §1
# [23] = molecular target: GlcNAc(b1-3)[GlcNAc(b1-4)][GlcNAc(b1-6)]GlcNAc
# Outline: as §1
# [24] = molecular target: GlcNAc(b1-3)[GlcNAc(b1-6)]Gal(b1-4)GlcNAc
# Outline: as §1
# [25] = molecular target: GlcNAc(b1-3)[GlcNAc(b1-6)]GalNAc
# Outline: as §1
# [26] = molecular target: GlcNAc(b1-3)[GlcNAc(b1-6)]GlcNAc(b1-4)GlcNAc
# Outline: as §1
# [27] = molecular target: GlcNAc(b1-4)Gal(b1-4)GlcNAc
# Outline: as §1
# [28] = molecular target: GlcNAc(b1-4)GlcNAc
# Outline: as §1
# [29] = molecular target: GlcNAc(b1-4)GlcNAc(b1-4)GlcNAc
# Outline: as §1
# [30] = molecular target: GlcNAc(b1-4)GlcNAc(b1-4)GlcNAc(b1-4)GlcNAc(b1-4)GlcNAc
# Outline: as §1
# [31] = molecular target: GlcNAc(b1-4)GlcNAc(b1-4)GlcNAc(b1-4)GlcNAc(b1-4)GlcNAc(b1-4)GlcNAc
# Outline: as §1
# [32] = molecular target: GlcNAc(b1-4)[GlcNAc(b1-6)]GalNAc
# Outline: as §1
# [33] = molecular target: GlcNAc(b1-6)Gal(b1-4)GlcNAc
# Outline: as §1
# [34] = molecular target: GlcNAc(b1-6)GalNAc
# Outline: as §1
# [35] = molecular target: GlcNAc3Prop(b1-4)GlcNAc
# Outline: as §1
# [36] = molecular target: Kdn(a2-3)Gal(b1-3)GlcNAc
# Outline: as §1
# [37] = molecular target: Kdn(a2-3)Gal(b1-4)GlcNAc
# Outline: as §1
# [38] = molecular target: Man(a1-2)Man(a1-2)Man(a1-3)Man
# Outline: as §1
# [39] = molecular target: Man(a1-2)Man(a1-2)Man(a1-6)[Man(a1-3)]Man
# Outline: as §1
# [40] = molecular target: Man(a1-2)Man(a1-3)Man
# Outline: as §1
# [41] = molecular target: Man(a1-2)Man(a1-3)[Man(a1-2)Man(a1-6)]Man
# Outline: as §1
# [42] = molecular target: Man(a1-2)Man(a1-3)[Man(a1-2)Man(a1-6)]Man(a1-6)[Man(a1-2)Man(a1-2)Man(a1-3)]Man
# Outline: as §1
# [43] = molecular target: Man(a1-2)Man(a1-3)[Man(a1-2)Man(a1-6)]Man(a1-6)[Man(a1-2)Man(a1-2)Man(a1-3)]Man(b1-4)GlcNAc(b1-4)GlcNAc
# Outline: as §1
# [44] = molecular target: Man(a1-2)Man(a1-3)[Man(a1-6)]Man(a1-6)[Man(a1-2)Man(a1-3)]Man(b1-4)GlcNAc(b1-4)GlcNAc
# Outline: as §1
# [45] = molecular target: Man(a1-2)Man(a1-6)[Man(a1-3)]Man(a1-6)[Man(a1-2)Man(a1-2)Man(a1-3)]Man
# Outline: as §1
# [46] = molecular target: Man(a1-2)Man(a1-6)[Man(a1-3)]Man(a1-6)[Man(a1-2)Man(a1-2)Man(a1-3)]Man(b1-4)GlcNAc(b1-4)GlcNAc
# Outline: as §1
# [47] = molecular target: Man(a1-3)[Man(a1-6)]Man
# Outline: as §1
# [48] = molecular target: Man(a1-3)[Man(a1-6)]Man(a1-6)[Man(a1-2)Man(a1-3)]Man(b1-4)GlcNAc(b1-4)GlcNAc
# Outline: as §1
# [49] = molecular target: Man(a1-3)[Man(a1-6)]Man(a1-6)[Man(a1-3)]Man
# Outline: as §1
# [50] = molecular target: Man(a1-3)[Man(a1-6)]Man(a1-6)[Man(a1-3)]Man(b1-4)GlcNAc(b1-4)GlcNAc
# Outline: as §1
# [51] = molecular target: Man(a1-3)[Man(a1-6)]Man(b1-4)GlcNAc(b1-4)GlcNAc
# Outline: as §1
# [52] = molecular target: Man(a1-6)Man
# Outline: as §1
# [53] = molecular target: Man(b1-4)GlcNAc
# Outline: as §1
# [54] = molecular target: Neu5Ac(a2-3)Gal
# Outline: as §1
# [55] = molecular target: Neu5Ac(a2-3)Gal(b1-3)GalNAc
# Outline: as §1
# [56] = molecular target: Neu5Ac(a2-3)Gal(b1-3)GalNAc(b1-3)Gal(a1-4)Gal(b1-4)Glc
# Outline: as §1
# [57] = molecular target: Neu5Ac(a2-3)Gal(b1-3)GalNAc(b1-3)Gal(b1-4)GlcNAc
# Outline: as §1
# [58] = molecular target: Neu5Ac(a2-3)Gal(b1-3)GalNAc(b1-4)[Neu5Ac(a2-3)]Gal(b1-4)Glc
# Outline: as §1
# [59] = molecular target: Neu5Ac(a2-3)Gal(b1-3)GalNAc6S
# Outline: as §1
# [60] = molecular target: Neu5Ac(a2-3)Gal(b1-3)GlcNAc
# Outline: as §1
binder,measurement,setting,value
B1,glycan array binding signal (z-score),[1],-0.199
same,glycan array binding signal (z-score),[2],-0.22
same,glycan array binding signal (z-score),[3],-0.269
same,glycan array binding signal (z-score),[4],-0.214
same,glycan array binding signal (z-score),[5],-0.137
same,glycan array binding signal (z-score),[6],-0.281
same,glycan array binding signal (z-score),[7],-0.263
same,glycan array binding signal (z-score),[8],-0.134
same,glycan array binding signal (z-score),[9],-0.144
same,glycan array binding signal (z-score),[10],-0.029
same,glycan array binding signal (z-score),[11],-0.104
same,glycan array binding signal (z-score),[12],-0.261
same,glycan array binding signal (z-score),[13],-0.194
same,glycan array binding signal (z-score),[14],-0.209
same,glycan array binding signal (z-score),[15],-0.172
same,glycan array binding signal (z-score),[16],-0.024
same,glycan array binding signal (z-score),[17],-0.311
same,glycan array binding signal (z-score),[18],-0.195
same,glycan array binding signal (z-score),[19],-0.142
same,glycan array binding signal (z-score),[20],-0.007
same,glycan array binding signal (z-score),[21],-0.266
same,glycan array binding signal (z-score),[22],-0.273
same,glycan array binding signal (z-score),[23],-0.261
same,glycan array binding signal (z-score),[24],-0.152
same,glycan array binding signal (z-score),[25],-0.221
same,glycan array binding signal (z-score),[26],-0.105
same,glycan array binding signal (z-score),[27],-0.19
same,glycan array binding signal (z-score),[28],-0.169
same,glycan array binding signal (z-score),[29],-0.067
same,glycan array binding signal (z-score),[30],-0.047
same,glycan array binding signal (z-score),[31],-0.075
same,glycan array binding signal (z-score),[32],-0.217
same,glycan array binding signal (z-score),[33],-0.161
same,glycan array binding signal (z-score),[34],-0.302
same,glycan array binding signal (z-score),[35],0.018
same,glycan array binding signal (z-score),[36],-0.154
same,glycan array binding signal (z-score),[37],-0.076
same,glycan array binding signal (z-score),[38],-0.167
same,glycan array binding signal (z-score),[39],-0.211
same,glycan array binding signal (z-score),[40],-0.221
same,glycan array binding signal (z-score),[41],-0.035
same,glycan array binding signal (z-score),[42],-0.201
same,glycan array binding signal (z-score),[43],-0.078
same,glycan array binding signal (z-score),[44],-0.294
same,glycan array binding signal (z-score),[45],-0.102
same,glycan array binding signal (z-score),[46],-0.148
same,glycan array binding signal (z-score),[47],-0.277
same,glycan array binding signal (z-score),[48],-0.13
same,glycan array binding signal (z-score),[49],-0.209
same,glycan array binding signal (z-score),[50],-0.069
same,glycan array binding signal (z-score),[51],-0.141
same,glycan array binding signal (z-score),[52],0.01
same,glycan array binding signal (z-score),[53],-0.072
same,glycan array binding signal (z-score),[54],0.101
same,glycan array binding signal (z-score),[55],-0.06
same,glycan array binding signal (z-score),[56],-0.173
same,glycan array binding signal (z-score),[57],-0.006
same,glycan array binding signal (z-score),[58],0.039
same,glycan array binding signal (z-score),[59],0.154
same,glycan array binding signal (z-score),[60],-0.084
